Measurements taken from the RNAGym collection of RNA variant scans (doi:10.1073/pnas.2313332121).
This sample is rich in variants without activity.

B1: TPR 5TU (parent)
chain: GGAUCUUCUCGAUCUAACAAAAAAGACAAAUCUGCCACAAAGCUUGAGAGCAUCUUCGGAUGCAGAGGCGGCAGCCUUCGGUGGCGCGAUAGCGCCAACGUUCUCAACUAUGACACGCAAAACGCGUGCUCCGUUGAAUGGAGUUUAUCAUG

Variants of: B1
Experiment: polymerase ribozyme fitness, log enrichment relative to wild type (log ratio); higher = more active; in vitro selection for triplet polymerase activity
Procedure, shortened: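 Fitness measures genotype enrichment against wild-type enrichment on a logarithmic scale, with inverse-variance-weighted averaging of replicates. The logarithm is base 2, and genotypes were kept only with ≥10 input reads and ≥1 read per output in Illumina sequencing. The sequenced libraries came from one triplicate in vitro selection round, including frozen incubation at −7 °C, of PCR-built, transcribed mutant libraries of each subunit of a heterodimeric triplet polymerase ribozyme.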

Polymerase ribozyme fitness (log ratio), -0.836:
A41U G117C

Polymerase ribozyme fitness (log ratio), -1.73:
A41U C105G

Polymerase ribozyme fitness (log ratio), ≤ -4.2:
G42A U53A C54A C57G U102C C103G C118G
G42C U44G U82C G133U
G42A C51U A64C G80A U127A
A41G C87A A121G C123U G140A U146C C149G
G42C G59U A98U
C43A A60G U146A
C43A G68C G80C A138C
G42C C116G A120U A138G G141U G143A
G42C G50A U55A C85A C114U
G42C G59A A64U A73C U77C G84A C99U A120G
G42C G83A A106U
A41U A49U G62U U101G U102A C131U U151C
A41G G50C C76U C103G C123U
C43A U53A G84A C114U
A41G G59C G65A G81C C93U C95U C149G
C43A G58A A60U G86U C114G
A41G U77G C85G C96U G124C
A41U A66C G67A C79G C96U A150U
G42C C72U C93G
G42U G80A C96A C103U
G42U G65A G67C G71A C96A A110G
A41G G50A C54G C79U U90G C93G U109A
A41U G68C G92C
C43A C118A U127G
C43A G59U G100A G133C A147U
G42A G88A G124A C125U C129A
G42C C99G U146G
G42A U56A G67U G94A
G42A C43G A91C C116U U146C
G42A A49G G86A G128A U134A G141C U145C
A41U U44A C54G A73G C99A C125A
G42A U44A G94U C99A G133C
G42C C87U C116U
G42U U102G A120G
A41G C93U A107G C116U G140A
G42A A49C G59A C93U C103G C116G A138C
A41U G65U G141C
C43A G94A C125U
G42A U53A G65C G70A C87G U146A
A41U G46A C75U G88A C99G C108U
G42C C103A
C43A C57A C85G G100U A147C
G42U A64C C79U G88A A106G A107C A147U
A41U C54U C85U A91U C114U
G42A A52G C85A C96A G128U A150C
G42C U148A
G42U G59A A60G U90C U111G A150G
G42C C87A C103U U135C
C43A C87A A89G C93U
G42A G58C G67U G86A C108G
G42C C93G C96U
A41U G88A C95G A106C A120G
G42C C54U C72A G88C A91U A106U
A41U C57G G126A U144A A147C
A41U A52U C85U G100A A115U U127C G143C
G42A G62A A89C C93G C105U G126A U148C
C43A G92C A115C G141C
A41G U45A C76G C93G G140U
A41U G88U C96U A107C A121U U139G
G42A U44A G62A G88A C149G
G42C U139G
G42A U44A A60U A66G G67A A97U A142U
G42U G70C C87A A89U
G42A A47C C85G C96G C116A A147U
C43A G58C C99G C118G
G42U A73G C96U G124C U151A
A41G C76U C93G A106G A122G C129A G141U
C43A A60U C76A C85G C125U A138G
G42U U44A C93U U109G G152U
A41U G62C C63A C96A A115U
A41G G80A G81A G88A A98G
G42C U61A C76A U127A U144C U145C A150C
A41U G81A C95G C114G
A41U G88U G126C
A41G G62C U90G C105U C116A U135A
A41G G50C C93G C103U C123A U127C
G42A G94A C95A A121U
G42U A47C G94A U102C A107C A115U
G42A C75G C96G
A41U U44A A49C G81U C95U A107G G128A
G42C U53A C93U A147U

Polymerase ribozyme fitness (log ratio), -3.69:
A41U G62C G136U
